Where two headings read alike, the source gives them in different places. No constants are given. Whether binding was seen depends on the method and setting. Binding seen in cells or lysates may run through a third protein. Some binding calls cover weakened binding; strength is not graded here. Sequences can lack the tags named with a protein.
T1: NEP1R1-HA (NEP1R1 fused to an HA epitope tag) (UniProt Q8N9A8)
T1 sequence: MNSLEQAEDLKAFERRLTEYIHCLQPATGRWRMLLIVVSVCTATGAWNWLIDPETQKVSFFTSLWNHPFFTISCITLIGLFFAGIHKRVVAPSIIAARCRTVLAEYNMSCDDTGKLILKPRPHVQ

The chains behind the UniProt entries cited, without tags or fusion partners.
UniProt Q13485: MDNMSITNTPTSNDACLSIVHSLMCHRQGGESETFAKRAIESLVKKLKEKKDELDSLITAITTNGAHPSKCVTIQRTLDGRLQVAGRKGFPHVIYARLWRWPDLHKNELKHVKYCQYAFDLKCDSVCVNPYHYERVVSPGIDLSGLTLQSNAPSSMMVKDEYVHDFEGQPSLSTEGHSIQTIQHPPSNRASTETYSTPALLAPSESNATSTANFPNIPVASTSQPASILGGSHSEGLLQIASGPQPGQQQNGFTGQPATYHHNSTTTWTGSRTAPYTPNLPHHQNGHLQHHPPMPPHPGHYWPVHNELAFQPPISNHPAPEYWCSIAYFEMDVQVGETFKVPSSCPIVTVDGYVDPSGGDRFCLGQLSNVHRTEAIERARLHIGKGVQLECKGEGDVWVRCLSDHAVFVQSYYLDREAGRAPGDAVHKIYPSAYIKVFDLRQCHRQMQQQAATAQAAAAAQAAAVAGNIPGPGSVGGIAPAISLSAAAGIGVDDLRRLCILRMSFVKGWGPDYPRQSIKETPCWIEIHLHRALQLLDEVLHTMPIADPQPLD

T2: CTDNEP1-FLAG (CTDNEP1 fused to a triple FLAG epitope tag) (UniProt O95476)
T2 sequence: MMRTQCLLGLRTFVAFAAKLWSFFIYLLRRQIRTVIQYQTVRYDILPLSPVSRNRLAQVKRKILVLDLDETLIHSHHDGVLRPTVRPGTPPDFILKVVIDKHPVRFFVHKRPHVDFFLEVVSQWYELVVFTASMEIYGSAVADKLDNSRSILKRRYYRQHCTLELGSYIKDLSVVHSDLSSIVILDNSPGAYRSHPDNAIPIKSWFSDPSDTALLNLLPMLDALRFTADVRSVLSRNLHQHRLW

T3: V5-tagged MAN1ΔC (UniProt Q9Y2U8)
T3 sequence: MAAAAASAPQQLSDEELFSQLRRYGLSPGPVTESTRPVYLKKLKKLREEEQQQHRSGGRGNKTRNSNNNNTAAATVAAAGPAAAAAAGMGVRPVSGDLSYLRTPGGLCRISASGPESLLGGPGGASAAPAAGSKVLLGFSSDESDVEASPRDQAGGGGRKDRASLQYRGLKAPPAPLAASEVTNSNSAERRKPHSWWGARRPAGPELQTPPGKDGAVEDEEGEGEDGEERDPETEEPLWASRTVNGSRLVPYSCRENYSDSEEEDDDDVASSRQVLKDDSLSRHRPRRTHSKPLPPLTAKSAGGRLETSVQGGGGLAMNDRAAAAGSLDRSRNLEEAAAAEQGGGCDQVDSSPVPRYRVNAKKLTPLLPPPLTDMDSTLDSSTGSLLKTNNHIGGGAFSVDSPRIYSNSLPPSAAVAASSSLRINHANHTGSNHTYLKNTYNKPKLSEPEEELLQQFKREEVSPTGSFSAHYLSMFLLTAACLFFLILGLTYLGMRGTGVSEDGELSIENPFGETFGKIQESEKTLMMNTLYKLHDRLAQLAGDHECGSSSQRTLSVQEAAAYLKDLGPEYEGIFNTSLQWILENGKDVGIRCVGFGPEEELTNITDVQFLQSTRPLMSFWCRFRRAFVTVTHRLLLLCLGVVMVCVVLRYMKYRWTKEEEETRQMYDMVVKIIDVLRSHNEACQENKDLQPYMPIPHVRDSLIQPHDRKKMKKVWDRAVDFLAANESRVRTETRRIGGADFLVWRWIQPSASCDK

T4: V5-MAN1 (V5-tagged MAN1) (UniProt Q9Y2U8)
T4 sequence: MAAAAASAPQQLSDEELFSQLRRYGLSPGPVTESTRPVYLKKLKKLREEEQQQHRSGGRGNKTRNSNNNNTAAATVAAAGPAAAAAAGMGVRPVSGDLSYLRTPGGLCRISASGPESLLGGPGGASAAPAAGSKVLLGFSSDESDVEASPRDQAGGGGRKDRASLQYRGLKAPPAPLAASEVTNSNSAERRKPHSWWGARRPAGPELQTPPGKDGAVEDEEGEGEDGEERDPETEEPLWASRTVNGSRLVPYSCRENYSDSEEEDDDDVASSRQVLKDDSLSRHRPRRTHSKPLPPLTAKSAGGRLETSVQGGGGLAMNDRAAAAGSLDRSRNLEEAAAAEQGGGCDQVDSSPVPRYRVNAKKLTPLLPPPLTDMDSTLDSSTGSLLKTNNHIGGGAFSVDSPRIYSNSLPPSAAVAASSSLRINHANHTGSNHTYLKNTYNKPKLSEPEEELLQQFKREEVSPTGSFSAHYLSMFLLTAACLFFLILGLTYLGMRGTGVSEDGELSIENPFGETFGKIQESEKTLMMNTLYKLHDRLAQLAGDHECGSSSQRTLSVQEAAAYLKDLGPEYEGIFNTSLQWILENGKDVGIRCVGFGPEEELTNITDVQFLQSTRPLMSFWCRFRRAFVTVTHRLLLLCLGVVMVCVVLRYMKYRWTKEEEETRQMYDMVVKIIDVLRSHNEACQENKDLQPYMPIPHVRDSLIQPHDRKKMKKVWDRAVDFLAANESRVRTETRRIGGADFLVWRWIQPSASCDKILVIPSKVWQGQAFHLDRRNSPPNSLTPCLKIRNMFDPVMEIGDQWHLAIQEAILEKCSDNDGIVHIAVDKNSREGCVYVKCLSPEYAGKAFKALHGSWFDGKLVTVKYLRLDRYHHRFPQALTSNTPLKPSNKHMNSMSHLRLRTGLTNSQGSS


Columns and labels:
Assay in all cases: co-IP; HeLa lysates in 1% DMNG, 50 mM Tris-HCl pH 7.5, 150 mM NaCl, 4 °C; anti-HA, anti-FLAG or anti-V5 magnetic beads 2 h; washes in 0.1% DMNG; immunoblot; parental cells, CTDNEP1 KO cells, or MAN1 KO cells expressing V5-MAN1 derivatives; without or with 1 h TGF-β3 (20 ng/ml) or BMP
[1] = molecular target: T1, NEP1R1-HA (NEP1R1 fused to an HA epitope tag)
[2] = molecular target: T2, CTDNEP1-FLAG (CTDNEP1 fused to a triple FLAG epitope tag)
[3] = molecular target: T1, NEP1R1-HA (NEP1R1 fused to an HA epitope tag); remark: listed apart in the source
[4] = molecular target: T3, V5-tagged MAN1ΔC
[5] = molecular target: T4, V5-MAN1 (V5-tagged MAN1)

Row | binding [3] | further results | Molecule
1 |  | binding [1]: no binding; binding [2]: no binding | SMAD4 (from UniProt Q13485 1-552)
2 | binds |  | endogenous MAN1 (protein, UniProt Q9Y2U8 1-911) MAAAAASAPQQLSDEELFSQLRRYGLSPGPVTESTRPVYLKKLKKLREEEQQQHRSGGRGNKTRNSNNNNTAAATVAAAGPAAAAAAGMGVRPVSGDLSYLRTPGGLCRISASGPESLLGGPGGASAAPAAGSKVLLGFSSDESDVEASPRDQAGGGGRKDRASLQYRGLKAPPAPLAASEVTNSNSAERRKPHSWWGARRPAGPELQTPPGKDGAVEDEEGEGEDGEERDPETEEPLWASRTVNGSRLVPYSCRENYSDSEEEDDDDVASSRQVLKDDSLSRHRPRRTHSKPLPPLTAKSAGGRLETSVQGGGGLAMNDRAAAAGSLDRSRNLEEAAAAEQGGGCDQVDSSPVPRYRVNAKKLTPLLPPPLTDMDSTLDSSTGSLLKTNNHIGGGAFSVDSPRIYSNSLPPSAAVAASSSLRINHANHTGSNHTYLKNTYNKPKLSEPEEELLQQFKREEVSPTGSFSAHYLSMFLLTAACLFFLILGLTYLGMRGTGVSEDGELSIENPFGETFGKIQESEKTLMMNTLYKLHDRLAQLAGDHECGSSSQRTLSVQEAAAYLKDLGPEYEGIFNTSLQWILENGKDVGIRCVGFGPEEELTNITDVQFLQSTRPLMSFWCRFRRAFVTVTHRLLLLCLGVVMVCVVLRYMKYRWTKEEEETRQMYDMVVKIIDVLRSHNEACQENKDLQPYMPIPHVRDSLIQPHDRKKMKKVWDRAVDFLAANESRVRTETRRIGGADFLVWRWIQPSASCDKILVIPSKVWQGQAFHLDRRNSPPNSLTPCLKIRNMFDPVMEIGDQWHLAIQEAILEKCSDNDGIVHIAVDKNSREGCVYVKCLSPEYAGKAFKALHGSWFDGKLVTVKYLRLDRYHHRFPQALTSNTPLKPSNKHMNSMSHLRLRTGLTNSQGSS
3 |  | binding [4]: binds; binding [5]: binds | NEP1R1-HA (NEP1R1 fused to an HA epitope tag) (protein, UniProt Q8N9A8 1-125) MNSLEQAEDLKAFERRLTEYIHCLQPATGRWRMLLIVVSVCTATGAWNWLIDPETQKVSFFTSLWNHPFFTISCITLIGLFFAGIHKRVVAPSIIAARCRTVLAEYNMSCDDTGKLILKPRPHVQ
4 | binds |  | V5-MAN1 (V5-tagged MAN1) (protein, UniProt Q9Y2U8 1-911) MAAAAASAPQQLSDEELFSQLRRYGLSPGPVTESTRPVYLKKLKKLREEEQQQHRSGGRGNKTRNSNNNNTAAATVAAAGPAAAAAAGMGVRPVSGDLSYLRTPGGLCRISASGPESLLGGPGGASAAPAAGSKVLLGFSSDESDVEASPRDQAGGGGRKDRASLQYRGLKAPPAPLAASEVTNSNSAERRKPHSWWGARRPAGPELQTPPGKDGAVEDEEGEGEDGEERDPETEEPLWASRTVNGSRLVPYSCRENYSDSEEEDDDDVASSRQVLKDDSLSRHRPRRTHSKPLPPLTAKSAGGRLETSVQGGGGLAMNDRAAAAGSLDRSRNLEEAAAAEQGGGCDQVDSSPVPRYRVNAKKLTPLLPPPLTDMDSTLDSSTGSLLKTNNHIGGGAFSVDSPRIYSNSLPPSAAVAASSSLRINHANHTGSNHTYLKNTYNKPKLSEPEEELLQQFKREEVSPTGSFSAHYLSMFLLTAACLFFLILGLTYLGMRGTGVSEDGELSIENPFGETFGKIQESEKTLMMNTLYKLHDRLAQLAGDHECGSSSQRTLSVQEAAAYLKDLGPEYEGIFNTSLQWILENGKDVGIRCVGFGPEEELTNITDVQFLQSTRPLMSFWCRFRRAFVTVTHRLLLLCLGVVMVCVVLRYMKYRWTKEEEETRQMYDMVVKIIDVLRSHNEACQENKDLQPYMPIPHVRDSLIQPHDRKKMKKVWDRAVDFLAANESRVRTETRRIGGADFLVWRWIQPSASCDKILVIPSKVWQGQAFHLDRRNSPPNSLTPCLKIRNMFDPVMEIGDQWHLAIQEAILEKCSDNDGIVHIAVDKNSREGCVYVKCLSPEYAGKAFKALHGSWFDGKLVTVKYLRLDRYHHRFPQALTSNTPLKPSNKHMNSMSHLRLRTGLTNSQGSS
5 | binds |  | endogenous CTDNEP1 (enzyme, UniProt O95476 1-244) MMRTQCLLGLRTFVAFAAKLWSFFIYLLRRQIRTVIQYQTVRYDILPLSPVSRNRLAQVKRKILVLDLDETLIHSHHDGVLRPTVRPGTPPDFILKVVIDKHPVRFFVHKRPHVDFFLEVVSQWYELVVFTASMEIYGSAVADKLDNSRSILKRRYYRQHCTLELGSYIKDLSVVHSDLSSIVILDNSPGAYRSHPDNAIPIKSWFSDPSDTALLNLLPMLDALRFTADVRSVLSRNLHQHRLW
6 | binds |  | V5-tagged MAN1ΔC (domain or fragment, UniProt Q9Y2U8 1-756) MAAAAASAPQQLSDEELFSQLRRYGLSPGPVTESTRPVYLKKLKKLREEEQQQHRSGGRGNKTRNSNNNNTAAATVAAAGPAAAAAAGMGVRPVSGDLSYLRTPGGLCRISASGPESLLGGPGGASAAPAAGSKVLLGFSSDESDVEASPRDQAGGGGRKDRASLQYRGLKAPPAPLAASEVTNSNSAERRKPHSWWGARRPAGPELQTPPGKDGAVEDEEGEGEDGEERDPETEEPLWASRTVNGSRLVPYSCRENYSDSEEEDDDDVASSRQVLKDDSLSRHRPRRTHSKPLPPLTAKSAGGRLETSVQGGGGLAMNDRAAAAGSLDRSRNLEEAAAAEQGGGCDQVDSSPVPRYRVNAKKLTPLLPPPLTDMDSTLDSSTGSLLKTNNHIGGGAFSVDSPRIYSNSLPPSAAVAASSSLRINHANHTGSNHTYLKNTYNKPKLSEPEEELLQQFKREEVSPTGSFSAHYLSMFLLTAACLFFLILGLTYLGMRGTGVSEDGELSIENPFGETFGKIQESEKTLMMNTLYKLHDRLAQLAGDHECGSSSQRTLSVQEAAAYLKDLGPEYEGIFNTSLQWILENGKDVGIRCVGFGPEEELTNITDVQFLQSTRPLMSFWCRFRRAFVTVTHRLLLLCLGVVMVCVVLRYMKYRWTKEEEETRQMYDMVVKIIDVLRSHNEACQENKDLQPYMPIPHVRDSLIQPHDRKKMKKVWDRAVDFLAANESRVRTETRRIGGADFLVWRWIQPSASCDK

Reference: article PMC11992160
